The supplement of paper PMC8728848
This is one part of the list.

Legend:
Assay in all cases: glycan array binding signal (z-score within array); higher = stronger binding
Settings in all cases: glycan notation: IUPAC condensed, linker removed
[1] = target: Gal(b1-3)GlcNAc
Method in brief: (§1)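 Columns mapping to the same glycan were averaged after glycan names were converted to IUPAC-condensed notation. The data come from 3228 arrays in the Consortium for Functional Glycomics database, limited to those with an available protein sequence. Binding is reported as a within-array Z-score averaged across arrays of one protein sequence and across linkers.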

[2] = target: Gal(b1-3)GlcNAc(b1-2)Man(a1-3)[Gal(b1-3)GlcNAc(b1-2)Man(a1-6)]Man(b1-4)GlcNAc(b1-4)GlcNAc
Method in brief: as §1

[3] = target: Gal(b1-3)GlcNAc(b1-3)Gal(b1-3)GlcNAc
Method in brief: as §1

[4] = target: Gal(b1-3)GlcNAc(b1-3)Gal(b1-4)Glc
Method in brief: as §1

[5] = target: Gal(b1-3)GlcNAc(b1-3)Gal(b1-4)GlcNAc
Method in brief: as §1

[6] = target: Gal(b1-3)[Fuc(a1-4)]GlcNAc
Method in brief: as §1

[7] = target: Gal(b1-3)[Fuc(a1-4)]GlcNAc(b1-3)Gal(b1-3)[Fuc(a1-4)]GlcNAc
Method in brief: as §1

[8] = target: Gal(b1-3)[Fuc(a1-4)]GlcNAc(b1-3)Gal(b1-4)GlcNAc
Method in brief: as §1

[9] = target: Gal(b1-3)[Fuc(a1-4)]GlcNAc(b1-3)Gal(b1-4)[Fuc(a1-3)]GlcNAc
Method in brief: as §1

[10] = target: Gal(b1-3)[GlcNAc(b1-6)]GalNAc
Method in brief: as §1

[11] = target: Gal(b1-3)[Neu5Ac(a2-6)]GalNAc
Method in brief: as §1

[12] = target: Gal(b1-3)[Neu5Ac(a2-6)]GlcNAc(b1-6)Gal(b1-4)Glc
Method in brief: as §1

[13] = target: Gal(b1-3)[Neu5Ac(b2-6)]GalNAc
Method in brief: as §1

[14] = target: Gal(b1-4)GalNAc(a1-3)[Fuc(a1-2)]Gal(b1-4)GlcNAc
Method in brief: as §1

[15] = target: Gal(b1-4)GalNAc(b1-3)[Fuc(a1-2)]Gal(b1-4)GlcNAc
Method in brief: as §1

[16] = target: Gal(b1-4)Glc
Method in brief: as §1

[17] = target: Gal(b1-4)Glc6S
Method in brief: as §1

[18] = target: Gal(b1-4)GlcNAc
Method in brief: as §1

[19] = target: Gal(b1-4)GlcNAc(a1-6)Gal(b1-4)GlcNAc
Method in brief: as §1

[20] = target: Gal(b1-4)GlcNAc(b1-2)Man(a1-3)[Gal(b1-4)GlcNAc(b1-2)Man(a1-6)]Man(b1-4)GlcNAc(b1-4)GlcNAc
Method in brief: as §1

[21] = target: Gal(b1-4)GlcNAc(b1-3)Gal(b1-3)GlcNAc
Method in brief: as §1

[22] = target: Gal(b1-4)GlcNAc(b1-3)Gal(b1-4)Glc
Method in brief: as §1

[23] = target: Gal(b1-4)GlcNAc(b1-3)Gal(b1-4)GlcNAc
Method in brief: as §1

[24] = target: Gal(b1-4)GlcNAc(b1-3)Gal(b1-4)GlcNAc(b1-3)Gal(b1-4)GlcNAc
Method in brief: as §1

[25] = target: Gal(b1-4)GlcNAc(b1-3)Gal(b1-4)[Fuc(a1-3)]GlcNAc(b1-3)Gal(b1-4)[Fuc(a1-3)]GlcNAc
Method in brief: as §1

[26] = target: Gal(b1-4)GlcNAc(b1-3)GalNAc
Method in brief: as §1

[27] = target: Gal(b1-4)GlcNAc(b1-3)[Gal(b1-4)GlcNAc(b1-6)]Gal(b1-4)GlcNAc
Method in brief: as §1

[28] = target: Gal(b1-4)GlcNAc(b1-3)[GlcNAc(b1-6)]Gal(b1-4)GlcNAc
Method in brief: as §1

[29] = target: Gal(b1-4)GlcNAc(b1-6)Gal(b1-4)GlcNAc
Method in brief: as §1

[30] = target: Gal(b1-4)GlcNAc(b1-6)Gal(b1-4)GlcNAc(b1-6)GalNAc
Method in brief: as §1

[31] = target: Gal(b1-4)GlcNAc(b1-6)GalNAc
Method in brief: as §1

[32] = target: Gal(b1-4)GlcNAc(b1-6)[Gal(b1-3)]GalNAc
Method in brief: as §1

[33] = target: Gal3S(b1-3)GalNAc
Method in brief: as §1

[34] = target: Gal3S(b1-3)GlcNAc
Method in brief: as §1

[35] = target: Gal3S(b1-3)[Fuc(a1-4)]GlcNAc
Method in brief: as §1

[36] = target: Gal3S(b1-4)Glc
Method in brief: as §1

[37] = target: Gal3S(b1-4)Glc6S
Method in brief: as §1

[38] = target: Gal3S(b1-4)GlcNAc
Method in brief: as §1

B1: Angptl4 (Homo sapiens), Q9BY76 (protein)
chain: MSGAPTAGAALMLCAATAVLLSAQGGPVQSKSPRFASWDEMNVLAHGLLQLGQGLREHAERTRSQLSALERRLSACGSACQGTEGSTDLPLAPESRVDPEVLHSLQTQLKAQNSRIQQLFHKVAQQQRHLEKQHLRIQHLQSQFGLLDHKHLDHEVAKPARRKRLPEMAQPVDPAHNVSRLHRLPRDCQELFQVGERQSGLFEIQPQGSPPFLVNCKMTSDGGWTVIQRRHDGSVDFNRPWEAYKAGFGDPHGEFWLGLEKVHSITGDRNSRLAVQLRDWDGNAELLQFSVHLGGEDTAYSLQLTAPVAGQLGATTVPPSGLSVPFSTWDQDHDLRRDKNCAKSLSGGWWFGTCSHSNLNGQYFRSIPQQRQKLKKGIFWKTWRGRYYPLQATTMLIQPMAAEAAS
glycan array binding signal (z-score) [1]: -0.049 | glycan array binding signal (z-score) [2]: 1.19 | glycan array binding signal (z-score) [3]: -0.33 | glycan array binding signal (z-score) [4]: -0.463 | glycan array binding signal (z-score) [5]: -0.235 | glycan array binding signal (z-score) [6]: -0.48 | glycan array binding signal (z-score) [7]: 0.865 | glycan array binding signal (z-score) [8]: -0.58 | glycan array binding signal (z-score) [9]: -0.192 | glycan array binding signal (z-score) [10]: -0.215 | glycan array binding signal (z-score) [11]: -0.354 | glycan array binding signal (z-score) [12]: -0.082 | glycan array binding signal (z-score) [13]: -0.018 | glycan array binding signal (z-score) [14]: -0.132 | glycan array binding signal (z-score) [15]: -0.427 | glycan array binding signal (z-score) [16]: 0.289 | glycan array binding signal (z-score) [17]: 0.109 | glycan array binding signal (z-score) [18]: 0.015 | glycan array binding signal (z-score) [19]: 0.52 | glycan array binding signal (z-score) [20]: -0.387 | glycan array binding signal (z-score) [21]: 0.921 | glycan array binding signal (z-score) [22]: -0.407 | glycan array binding signal (z-score) [23]: -0.339 | glycan array binding signal (z-score) [24]: -0.164 | glycan array binding signal (z-score) [25]: 3.98 | glycan array binding signal (z-score) [26]: -0.334 | glycan array binding signal (z-score) [27]: -1.27 | glycan array binding signal (z-score) [28]: -0.27 | glycan array binding signal (z-score) [29]: -0.064 | glycan array binding signal (z-score) [30]: -0.089 | glycan array binding signal (z-score) [31]: -0.296 | glycan array binding signal (z-score) [32]: -0.211 | glycan array binding signal (z-score) [33]: -0.195 | glycan array binding signal (z-score) [34]: -0.514 | glycan array binding signal (z-score) [35]: -0.525 | glycan array binding signal (z-score) [36]: -0.052 | glycan array binding signal (z-score) [37]: -0.321 | glycan array binding signal (z-score) [38]: -0.362
